Consider 172 sequences from paper PMC10668032.

This is one part of the list. At the low end of the ranking, values are background and their order means little.

The target in the test is SIX1-Q177R homeodomain (UniProt Q15475). In words: universal protein binding microarray. To be noted: Universal all-10-mer PBM (8x60K, AMADID 030236), 300 nM GST-tagged protein, Alexa Fluor 488 anti-GST; buffer, salt, pH and temperature not stated; high values mean tight binding; most listed sequences are background and not binding sites; double strand, one strand shown.
As for ATGTGCCC, the binding signal was determined as 0.0431 E-score.
For the sequence CAAGGCGA, the binding signal is -0.0976 E-score.
Then CCTCTTAA, with -0.0653 E-score.
Then TTCACGAA, with -0.105 E-score.
With ACCCCAAA, the binding signal stood at 0.205 E-score.
With CCGGTACC, the binding signal came out at 0.0162 E-score.
Then CAAGTGTC, with 0.379 E-score; and AGTAAACA, with 0.0557 E-score; and TCACGTAA, with -0.00818 E-score.
Then CCTTTTCA, with -0.0263 E-score; and AACAAGCG, with -0.117 E-score.
As to AAAATTGC, the binding signal is -0.136 E-score.
For CGTTTCAA, the binding signal is -0.134 E-score.
For the sequence ATCCAGTG, the binding signal is 0.22 E-score.
TACGTAAA: the binding signal was -0.24 E-score.
Then AGATAAGG, with -0.00347 E-score; and CCACGTCG, with 0.0654 E-score.
In the case of CAGATCTG, the binding signal is -0.189 E-score.
Then ACCCGAAT, with 0.0523 E-score; and CCCGGAGA, with 0.028 E-score; and GCTATCTA, with -0.142 E-score.
As to TAAACAGA, the binding signal is -0.198 E-score.
Then AGAGTCGA, with 0.0146 E-score; and TATTCAAA, with -0.238 E-score.
For the sequence AATATGGT, the binding signal stood at 0.103 E-score.
Then AGTATGTA, with -0.116 E-score.
For the sequence ACCGGAAT, the binding signal is 0.0575 E-score.
Regarding CGACTCCA, the binding signal is 0.275 E-score.
Then ACCGGTGC, with 0.238 E-score; and CCTCGGGC, with -0.0544 E-score.
Then TACGGTCA, with -0.169 E-score.
Then AGTCGTAC, with -0.0423 E-score; and ACTACGAT, with 0.0959 E-score.
With ATGAGAGC, the binding signal is -0.0859 E-score.
Then ATATGCAT, with -0.197 E-score; and AGAGGGGG, with 0.0956 E-score; and GATCCCTA, with 0.24 E-score.
Turning to ACCATCGG, the binding signal came out at 0.00307 E-score.
Then ACTGTGAC, with -0.0408 E-score; and ACGCCGTA, with 0.102 E-score; and ACAAGACG, with -0.0223 E-score.
Then GGACAGCC, with -0.111 E-score; and GAAGAATA, with -0.153 E-score; and GACGCAGA, with -0.211 E-score.
As for AGCTTAAA, the binding signal is -0.219 E-score.
For ACAACACC, the binding signal was 0.455 E-score.
Then GGTTACAA, with 0.0449 E-score; and GGTCGCTA, with -0.113 E-score.
Then GATGCTTA, with -0.171 E-score; and CAGTGGCC, with -0.226 E-score; and GACTAGAC, with -0.105 E-score.
Then CAGTGTGG, with 0.14 E-score; and AGTCATCC, with -0.118 E-score.
CATACCAA: the binding signal was -0.0186 E-score.
CCATGCCA: the binding signal is 0.0163 E-score.
Then ACAAGAGC, with -0.144 E-score; and CACTGTTA, with 0.255 E-score; and GACCGCAA, with -0.174 E-score.
Then CCCTGTCG, with -0.054 E-score; and CTATGTTA, with -0.164 E-score.
With CACCAATA, the binding signal came to 0.276 E-score.
Then CCACACTA, with 0.206 E-score; and CCTAGCAG, with -0.00109 E-score.
Then ATAATCTA, with -0.0691 E-score; and CGGGCGCC, with -0.183 E-score.
Then GCGTACGA, with -0.152 E-score; and ACTATTGG, with -0.129 E-score; and CCTTATCA, with -0.0608 E-score.
Turning to CCAGCAAA, the binding signal is -0.137 E-score.
For the sequence TAACATAA, the binding signal is -0.175 E-score.
Then TATGAACA, with 0.0259 E-score.
Turning to AAGAGATG, the binding signal was -0.0559 E-score.
Then GGCAAGCC, with -0.216 E-score; and CGCGGCTC, with -0.0831 E-score; and CCTGTTCG, with -0.0401 E-score.
As to CAGCATTA, the binding signal is -0.235 E-score.
As to GTACAACA, the binding signal stood at 0.2 E-score.
As for CTATACTA, the binding signal is -0.0546 E-score.
For the sequence ACGTTACT, the binding signal was -0.0152 E-score.
With ATTTCACC, the binding signal was -0.0368 E-score.
Then GCAGGAAC, with -0.0527 E-score; and AAAGTGTC, with 0.36 E-score; and CCGTGAGC, with -0.217 E-score.
Turning to CCCTCAAG, the binding signal worked out at 0.145 E-score.
Then CCCGATAG, with 0.00661 E-score; and CAGGGGCG, with 0.141 E-score; and AGCTTCAA, with -0.0875 E-score.
Take TCCACAGA: the binding signal is -0.0469 E-score.
As for GAGCGGAA, the binding signal is -0.091 E-score.
Then CCAGGGAA, with -0.188 E-score; and CGCCCGCA, with 0.0818 E-score; and AACGGGCT, with -0.203 E-score.
Then CCCAGTTA, with 0.117 E-score; and AACGTTCT, with -0.254 E-score; and ACCGGCCT, with -0.177 E-score.
As to CAAAGTAA, the binding signal was -0.128 E-score.
Then CTGGCCCC, with -0.153 E-score.
As for CCGTCAAC, the binding signal was -0.206 E-score.
Then CCCCCCCA, with 0.131 E-score; and CCTAATTA, with 0.0243 E-score.
Regarding AGGCGGGA, the binding signal was -0.0564 E-score.
Then CGGATCTC, with -0.118 E-score.
Then CGCCCTCC, with 0.102 E-score; and ACGGACGC, with -0.0357 E-score.
Then TCGTCTAA, with -0.148 E-score.
As to GTGCAAAA, the binding signal is 0.107 E-score.
Then ACCTTGCA, with -0.0329 E-score; and GCCAAACA, with 0.00728 E-score.
Then AGTCTATA, with -0.124 E-score.
Regarding TATAGCAA, the binding signal is -0.114 E-score.
GTTGGTGA: the binding signal was found to be 0.0205 E-score.
In the case of ACAGGTAC, the binding signal was determined as 0.0087 E-score.
Turning to ACTTAGAT, the binding signal came out at 0.0918 E-score.
Then GTTGTCCA, with -0.0292 E-score; and GCCTCGAC, with 0.118 E-score.
Take ATAACTTA: the binding signal is -0.0915 E-score.
Then GGGAGAAC, with 0.0158 E-score.
As to ACGTTGCA, the binding signal is -0.0303 E-score.
Then AGCTTATC, with -0.023 E-score.
On to AGAGCGCA, for which the binding signal was -0.0692 E-score.
Then GCACTGCC, with -0.129 E-score.
Then ATACAAAG, with -0.197 E-score; and CTACAGCC, with -0.213 E-score.
ACGGCATC: the binding signal is -0.00636 E-score.
With AAAGTTCC, the binding signal was -0.334 E-score.
Then ATGGAATA, with -0.176 E-score; and ACTATATC, with 0.178 E-score.
For the sequence ATTCCGGG, the binding signal was determined as 0.113 E-score.
Then ACGGCTCA, with -0.0559 E-score; and GTACTCAC, with -0.0716 E-score.
Then GGGATCAC, with 0.277 E-score; and CGTACGGC, with 0.0372 E-score; and AGACAAAC, with -0.159 E-score.
Turning to CGTAGGAC, the binding signal stood at 0.117 E-score.
Then AAGACGCG, with -0.0665 E-score; and AAAAATCT, with -0.244 E-score; and AAGTGCAC, with 0.073 E-score.
Then CGTTGTTC, with -0.24 E-score; and AGTCGCCA, with -0.0635 E-score; and AAAGGGCT, with -0.278 E-score.
For AAGGACCC, the binding signal stood at 0.0358 E-score.
Then GTATTGTA, with 0.089 E-score; and ATGTATTC, with -0.0646 E-score.
On to ATGTCCCG, for which the binding signal is -0.178 E-score.
As to AGGGTCTC, the binding signal was -0.0215 E-score.
Then CGAGGTTA, with -0.119 E-score; and AGAGCCAC, with -0.173 E-score.
For the sequence AAATTATC, the binding signal was -0.0868 E-score.
On to CTACGAAG, for which the binding signal is -0.0627 E-score.
Then AGCTACCT, with -0.173 E-score; and CACGCATC, with 0.168 E-score; and ACCCCTCT, with 0.304 E-score.
Consider ACCGAAAA, for which the binding signal was -0.0806 E-score.
Then ATGATTTA, with -0.0946 E-score; and ACAGAGAA, with -0.248 E-score; and CTTTGCAC, with 0.16 E-score.
Then ACATCACT, with -0.0399 E-score; and GGCGAACA, with 0.198 E-score; and ACCCGCTC, with 0.227 E-score.
Consider CTTGGTCC, for which the binding signal is 0.0781 E-score.
Then CTGTTGTC, with -0.0928 E-score; and GAGGGTGC, with 0.237 E-score; and CTCAATCC, with -0.0885 E-score.
Then AGGCATAT, with -0.219 E-score.
Regarding TCCCTCGA, the binding signal amounted to 0.101 E-score.
Turning to ATGTAACA, the binding signal was found to be 0.272 E-score.
Then TAATCGCA, with -0.0859 E-score.
Then ACATACGA, with -0.254 E-score.
Take CTGTGTCC: the binding signal was 0.0691 E-score.
For CAAGCATC, the binding signal was -0.191 E-score.
In the case of ATTTAGGG, the binding signal is -0.0121 E-score.
AACTGAAG: the binding signal was -0.187 E-score.
